From PubChem BioAssay AID504339 (National Center for Advancing Translational Sciences (NCATS), 2011)
Out of some 390,000 compounds screened, about 17,000 (4.4%) were called active. The shares of active, inactive and inconclusive entries below differ from those in the screen. The call rests on the fitted dose curve; in most records, active means well fitted inhibition curve with a large enough effect; inconclusive means small, poorly fitted or top-dose-only effect; inactive means no such curve, though single readings can be large or run the other way. A potency beside an inconclusive call is a rough fit, not a confirmed value.

Target: Lysine-specific demethylase 4A (Homo sapiens) (UniProt O75164)
Assay: qHTS Assay for Inhibitors of JMJD2A-Tudor Domain; further: nearly all actives have a fitted effect of over 50% in size
Settings: AlphaScreen JMJD2A-Tudor / H3K4me3 peptide binding; activity change, negative = inhibition: at 114 µM (top of the series)
On the % scale 0 is the no-effect control and ±100 the full control effect; potency means the concentration at half of the fitted maximal effect; tags describe the fitted curve by direction and shape.

Sequence of UniProt O75164 (O75164 whole entry, looked up, the tested form may be a part): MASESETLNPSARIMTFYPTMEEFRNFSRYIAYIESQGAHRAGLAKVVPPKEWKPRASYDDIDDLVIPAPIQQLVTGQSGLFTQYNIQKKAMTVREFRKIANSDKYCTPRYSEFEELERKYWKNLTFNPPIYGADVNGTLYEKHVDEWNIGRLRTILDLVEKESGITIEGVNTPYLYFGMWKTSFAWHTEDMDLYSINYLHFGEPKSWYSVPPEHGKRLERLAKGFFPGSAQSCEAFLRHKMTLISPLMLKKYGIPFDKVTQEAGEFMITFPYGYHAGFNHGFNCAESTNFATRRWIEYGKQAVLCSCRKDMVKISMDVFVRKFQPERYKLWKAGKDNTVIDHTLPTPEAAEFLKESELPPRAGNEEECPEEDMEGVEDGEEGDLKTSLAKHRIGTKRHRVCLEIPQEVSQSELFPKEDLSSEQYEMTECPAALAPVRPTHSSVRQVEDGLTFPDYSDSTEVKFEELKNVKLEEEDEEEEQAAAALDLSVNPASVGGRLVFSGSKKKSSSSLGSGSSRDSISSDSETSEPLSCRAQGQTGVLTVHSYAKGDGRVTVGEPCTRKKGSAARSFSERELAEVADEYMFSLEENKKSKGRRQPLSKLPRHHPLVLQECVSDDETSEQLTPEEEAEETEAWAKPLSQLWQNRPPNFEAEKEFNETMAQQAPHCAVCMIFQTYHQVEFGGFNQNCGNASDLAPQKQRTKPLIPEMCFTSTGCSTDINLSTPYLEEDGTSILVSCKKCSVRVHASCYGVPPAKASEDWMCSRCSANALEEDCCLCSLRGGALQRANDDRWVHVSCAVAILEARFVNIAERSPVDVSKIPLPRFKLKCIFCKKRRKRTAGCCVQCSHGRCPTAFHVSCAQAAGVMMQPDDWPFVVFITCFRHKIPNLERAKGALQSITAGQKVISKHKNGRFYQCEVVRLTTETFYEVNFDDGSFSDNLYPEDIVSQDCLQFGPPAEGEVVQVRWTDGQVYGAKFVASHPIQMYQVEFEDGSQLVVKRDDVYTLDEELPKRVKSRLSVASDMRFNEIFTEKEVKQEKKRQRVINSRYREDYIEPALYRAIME

Which Potency does the source give for Cc1ccc(C)c(N2N=C(C(=O)Nc3ccccc3N3CCCC3)CCC2=O)c1 here?
Its Potency is active: 44.7 µM.

With Nc1ccc(Cn2ccc3c4c(N)nc(N)nc4ccc32)cc1 as the molecule, how does the Potency read?
The Potency was active: 44.7 µM.

Which Potency does the source give for CCc1ccccc1N(CC(=O)NCC1CCCO1)C(=O)CCC(=O)Nc1nccs1 (stereo not given) here?
The Potency was active: 25.1 µM.

For Fc1ccc(-c2csc3[n+]2CCS3)cc1, which “activity change, negative = inhibition” value is on record?
Its value is inactive: -17.4%.

With CC(=O)c1c(C)[nH]c(=S)c(C#N)c1-c1ccc(Cl)cc1 as the molecule, how does the Potency read?
Its Potency is inconclusive: 22.4 µM [inhibitor, single point].

COCCn1nnnc1C(c1cc2cc(C)ccc2[nH]c1=O)N1CCc2ccccc21 (stereo not given) was tested. Which Potency did it give?
Its Potency is inconclusive: 70.8 µM [inhibitor, partial curve].

For COc1ccc(-n2c(C)cc(/C=N/Nc3nnc(C)n3N)c2C)cc1, which Potency is on record?
The Potency was inconclusive: 56.2 µM [inhibitor, partial curve].

How did the Potency turn out when CC/C(=N\NC(=O)c1ccc(N(C)C)cc1)c1ccccc1 was run?
The Potency was inconclusive: 89.1 µM [inhibitor, single point].

Which Potency does the source give for COc1ccc(NC(=O)c2sc3nc4c(cc3c2N)CN(C(C)C)CC4)c(OC)c1 here?
The Potency was inconclusive: 56.2 µM [inhibitor, partial curve].

With COc1ccc(S(=O)(=O)N2CCOCC2)c(C)c1C as the molecule, how does the Potency read?
The Potency was inconclusive: 89.1 µM [inhibitor, single point].

How did the Potency turn out when Cc1cc(-n2c(C)c3c(C)nnc(C)c3c2C)ccc1N was run?
Its Potency is inconclusive: 56.2 µM [inhibitor, partial curve].

How did the Potency turn out when COc1cc(/C=C2\SC(=O)N(CC(=O)Nc3ccc(C)cc3)C2=O)cc(Cl)c1OCC(=O)O was run?
The Potency was active: 11.2 µM.

Which Potency does the source give for CCc1ccccc1NC(=O)CSC1=C(C#N)C(c2ccc3c(c2)OCO3)C2=C(CCCC2=O)N1 (stereo not given) here?
Its Potency is inconclusive: 56.2 µM [inhibitor, partial curve].

How did the activity change, negative = inhibition turn out when CC1(c2ccc([N+](=O)[O-])cc2)NC(=O)N(CC(=O)Nc2ccc(N3CCCCC3)cc2)C1=O (stereo not given) was run?
Its activity change, negative = inhibition is inconclusive: -72.4% [inhibitor].

How did the Potency turn out when CC1CCCN(c2nc(NCc3ccco3)nc(N)c2[N+](=O)[O-])C1 (stereo not given) was run?
The Potency was inconclusive: 25.1 µM [inhibitor, single point].

How did the “activity change, negative = inhibition” value turn out when COc1ccc(-c2ccc(CNc3ccc4[nH]c(=O)[nH]c4c3)o2)cc1Cl was run?
Its value is inactive: -11.6%.

With COc1ccccc1OCC(=O)Nc1sc2c(c1C(N)=O)CCC2 as the molecule, how does the Potency read?
The Potency was inconclusive: 79.4 µM [inhibitor, partial curve].

How did the Potency turn out when C[C@H]1CN([C@@H](C)CO)C(=O)Cc2cc(NC(=O)C3CC3)ccc2O[C@H]1CN(C)Cc1ccc(Oc2ccccc2)cc1 was run?
The Potency was inconclusive: 56.2 µM [inhibitor, partial curve, poor fit].

Which Potency does the source give for Cc1ccc(S(=O)(=O)N2CCC(C(=O)N(C)C3CCS(=O)(=O)C3)CC2)cc1 (stereo not given) here?
Its Potency is inconclusive: 3.16 µM [inhibitor, single point].

With CC1=NN(c2ccccc2)C(=O)/C1=C\N(O)c1ccccc1 as the molecule, how does the Potency read?
Its Potency is inconclusive: 56.2 µM [inhibitor, partial curve].

For Cc1nn(CC(=O)NC2CCCCC2)c(=O)c2cc3cc(F)ccc3n12, which “activity change, negative = inhibition” value is on record?
The value was inactive: -8%.

With CCN(CC)C(=O)c1sc2nc(N3CCOCC3)c3c(c2c1N)CCCC3 as the molecule, how does the Potency read?
The Potency was inconclusive: 89.1 µM [inhibitor, single point].

With O=C(COc1ccc2ccccc2c1)NN1C(=O)c2ccccc2C1=O as the molecule, how does the Potency read?
The Potency was active: 89.1 µM.

CN1C(=O)C(C)(C)c2cc(S(=O)(=O)N3CCCC(C(=O)NCc4ccc(Cl)cc4)C3)ccc21 (stereo not given) was tested. Which “activity change, negative = inhibition” value did it give?
The value was inactive: -22.1%.

Brc1cc2c(cc1/C=N/Nc1nc3ccccc3s1)OCO2 was tested. Which “activity change, negative = inhibition” value did it give?
The value was inactive: -28.3%.

For Cc1ccc(S(=O)(=O)N(CC(=O)NCc2ccncc2)C2CCCCC2)cc1, which Potency is on record?
Its Potency is inconclusive: 3.16 µM [inhibitor, single point].

For CSCCC(NC(=O)c1ccccc1)C(=O)N1CC=C(c2ccccc2)CC1 (stereo not given), which Potency is on record?
The Potency was inconclusive: 56.2 µM [inhibitor, partial curve].

O=C(NCCN1CCCCC1)c1ccc(=O)oc1 was tested. Which Potency did it give?
The Potency was inconclusive: 31.6 µM [inhibitor, single point].

How did the Potency turn out when Cn1ccnc1C(=O)C1CCCN(Cc2cn[nH]c2-c2ccc(-c3ccccc3)cc2)C1 (stereo not given) was run?
The Potency was inconclusive: 39.8 µM [inhibitor, partial curve, poor fit].

With CC1=NCC(C)c2c1[nH]c1ccccc21 (stereo not given) as the molecule, how does the Potency read?
Its Potency is inconclusive: 28.2 µM [inhibitor, partial curve, poor fit].

Which “activity change, negative = inhibition” value does the source give for O=C(CCN1CCN(c2ccccc2)CC1)c1ccc(Br)cc1 here?
Its value is inactive: -31.9%.

Which “activity change, negative = inhibition” value does the source give for COc1ccc(C2OC(=O)CC2C(=O)NCc2ccc(Cl)cc2)cc1OC (stereo not given) here?
Its value is inactive: -13.1%.

How did the “activity change, negative = inhibition” value turn out when CCc1ccccc1NC(=O)Nc1cc(C(=O)NCc2ccc(C(C)C)cc2)ccc1N1CCCC1 was run?
Its value is inactive: -4.64%.

For COc1ccccc1C1CC(c2cccs2)=Nc2ccccc2S1 (stereo not given), which “activity change, negative = inhibition” value is on record?
The value was inactive: -34.4%.

CC(C)(C)c1cc(=O)n2[nH]c(N)nc2n1 was tested. Which Potency did it give?
Its Potency is inconclusive: 25.1 µM [inhibitor, single point].

For CC(C)CNC(=O)N[C@@H](CC(C)C)C(=O)O, which activity change, negative = inhibition is on record?
The activity change, negative = inhibition was inactive: -8.82% [at 11.4 µM].

For CCCc1nc2c(C)cc(C)cc2c(N)c1CC, which Potency is on record?
The Potency was active: 4.47 µM.

Which Potency does the source give for COc1ccccc1NC(=O)CC(=O)c1ccccc1 here?
The Potency was inconclusive: 20 µM [inhibitor, full curve].

For COc1ccc(CCNC(=O)C2=C(C)C(=O)OC23CCCCC3)c(OC)c1OC, which Potency is on record?
The Potency was inconclusive: 3.98 µM [inhibitor, single point].

Which “activity change, negative = inhibition” value does the source give for C/C(=N\NS(=O)(=O)c1ccccc1)c1ccc2c(c1)OCCO2 here?
Its value is inactive: -8.22%.

Which Potency does the source give for S=c1[nH]nc(-c2ccco2)n1/N=C/c1ccc(Br)s1 here?
The Potency was active: 28.2 µM.

For O=C(NCc1n[nH]c(=S)n1-c1ccc(Cl)c(Cl)c1)c1ccco1, which Potency is on record?
The Potency was active: 50.1 µM.

How did the Potency turn out when O=C(Nc1nnc(-c2ccccn2)o1)c1ccc(Br)cc1 was run?
Its Potency is inconclusive: 70.8 µM [inhibitor, single point].

O=C(COC(=O)c1cnccn1)NC(=O)c1ccccc1 was tested. Which Potency did it give?
Its Potency is inconclusive: 22.4 µM [inhibitor, partial curve].

For COc1cc(/C=N/N=C2/C(=O)Nc3ccccc32)cc(OC)c1O, which Potency is on record?
Its Potency is inconclusive: 50.1 µM [inhibitor, partial curve].

Which Potency does the source give for CCN(CC)S(=O)(=O)c1ccc(NCc2ccccn2)nc1 here?
Its Potency is active: 70.8 µM.

How did the Potency turn out when COc1cc(OC)cc(C(=O)NCc2n[nH]c(=S)n2-c2ccccc2OC)c1 was run?
Its Potency is active: 10 µM.

For CSc1ccc(NC(=O)Nc2cccn(Cc3ccccc3)c2=O)cc1, which Potency is on record?
Its Potency is inconclusive: 28.2 µM [inhibitor, single point].

With Brc1ccc(N=Nc2ccc3ccccc3n2)cc1 as the molecule, how does the Potency read?
Its Potency is inconclusive: 2.82 µM [inhibitor, full curve, poor fit].

For CC[n+]1c(/C=C/c2cc([N+](=O)[O-])ccc2O)ccc2ccccc21, which Potency is on record?
Its Potency is inconclusive: 44.7 µM [inhibitor, partial curve].

With CC(C)c1ccc(NC(=O)CSC2=Nc3ccccc3C3=NC(CC(=O)NCc4ccc(F)cc4)C(=O)N23)cc1 (stereo not given) as the molecule, how does the Potency read?
Its Potency is inconclusive: 79.4 µM [inhibitor, partial curve].

With O=C(O)CN1C(=O)/C(=C\c2ccccc2OCc2ccc(Cl)cc2)SC1=S as the molecule, how does the Potency read?
Its Potency is inconclusive: 31.6 µM [inhibitor, full curve].

How did the Potency turn out when CN(C)c1ccc(C(=O)NCCCSc2ccccc2)cc1 was run?
Its Potency is inconclusive: 56.2 µM [inhibitor, partial curve].

Which “activity change, negative = inhibition” value does the source give for Cc1ccc(NC(=O)C(C)Sc2nc3nc(C)cc(C)n3n2)cc1 (stereo not given) here?
The value was inactive: -14.9%.

For O=C(/C=C/c1ccc(Cl)cc1)NC(=S)Nc1ccc(N2CCOCC2)c(Cl)c1, which Potency is on record?
The Potency was inconclusive: 70.8 µM [inhibitor, single point].

With COCCCNC(=O)CSc1ccsc1[N+](=O)[O-] as the molecule, how does the “activity change, negative = inhibition” value read?
The value was inactive: -12.4%.

How did the Potency turn out when Cc1cc(C(=O)CSc2nc3ccc(Cl)cc3[nH]2)c(C)n1C was run?
The Potency was inconclusive: 89.1 µM [inhibitor, partial curve].

Which Potency does the source give for C=CCNC(=O)/C(C#N)=C/c1c(N2CCN(c3ccc(OC)cc3)CC2)nc2c(C)cccn2c1=O here?
Its Potency is active: 25.1 µM.

COc1ccc(-c2csc(N(CCCN(C)C)C(=O)c3ccccc3Cl)n2)cc1 was tested. Which Potency did it give?
Its Potency is inconclusive: 39.8 µM [inhibitor, partial curve].

How did the “activity change, negative = inhibition” value turn out when Cn1c(C(=O)OCC(=O)NCc2ccc(F)cc2)cc2occc21 was run?
The value was inactive: -4.83%.

CC(=O)C1=C(O)CC(c2ccccc2)CC1=NCCc1c(C)[nH]c2ccc(C)cc12 (stereo not given) was tested. Which Potency did it give?
Its Potency is inconclusive: 39.8 µM [inhibitor, single point].

With CCOc1ccc(NC(=O)CSc2nccn2-c2cccc(C)c2C)cc1 as the molecule, how does the Potency read?
The Potency was inconclusive: 50.1 µM [inhibitor, partial curve].

How did the Potency turn out when COc1ccc(C=NNc2ccc(S(=O)(=O)Nc3ccccc3C(=O)O)cc2[N+](=O)[O-])c(OC)c1 was run?
The Potency was active: 35.5 µM.

With COc1ccc(C(=O)NCCn2cc(SCC(=O)Nc3ccccc3)c3ccccc32)cc1OC as the molecule, how does the “activity change, negative = inhibition” value read?
Its value is inactive: -26.5%.

How did the Potency turn out when C=CCn1c(SCC(=O)Nc2sc(C)c(C)c2C(=O)OCC)nnc1-c1sc(N)nc1C was run?
The Potency was inconclusive: 56.2 µM [inhibitor, partial curve].

Which Potency does the source give for O=C(COC(=O)c1ccccn1)c1ccc(Br)cc1 here?
Its Potency is active: 28.2 µM.

How did the Potency turn out when Cc1ccc2[nH]c(=O)c(C(c3nnnn3C3CCCC3)N(Cc3cccnc3)Cc3ccco3)cc2c1 (stereo not given) was run?
Its Potency is inconclusive: 56.2 µM [inhibitor, partial curve, poor fit].

With COc1cccc2sc3cc(C#CC4(O)CCCCC4)ccc3c(=O)c12 as the molecule, how does the Potency read?
The Potency was inconclusive: 89.1 µM [inhibitor, partial curve, poor fit].

With Cc1cccc2nc(-c3cccc(NC(=O)c4ccc(Cl)cc4)c3)cn12 as the molecule, how does the Potency read?
The Potency was inconclusive: 56.2 µM [inhibitor, partial curve].

With CN(C)CCNc1ncnc2c1sc1nc(N3CCCC3)c3c(c12)CC(C)(C)OC3 as the molecule, how does the Potency read?
The Potency was inconclusive: 44.7 µM [inhibitor, partial curve].
